# From paper PMC4336329 (PLoS ONE, 2015)
# The campaign covered roughly 310,000 compounds. About 14,000 (4.5%) showed an effect of 50% or more. Effects have a minus sign here. The list shows a part of the results.
# Biological target: human ether-à-go-go-related gene (hERG) potassium channel (human, UniProt Q12809)
# Experiment: primary screen, population patch clamp on CHO cells stably expressing hERG
# 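Also: peak tail current of the secondary pulse compared with the same well before compound.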
# human ether-à-go-go-related gene (hERG) potassium channel, sequence (Q12809 whole entry, looked up): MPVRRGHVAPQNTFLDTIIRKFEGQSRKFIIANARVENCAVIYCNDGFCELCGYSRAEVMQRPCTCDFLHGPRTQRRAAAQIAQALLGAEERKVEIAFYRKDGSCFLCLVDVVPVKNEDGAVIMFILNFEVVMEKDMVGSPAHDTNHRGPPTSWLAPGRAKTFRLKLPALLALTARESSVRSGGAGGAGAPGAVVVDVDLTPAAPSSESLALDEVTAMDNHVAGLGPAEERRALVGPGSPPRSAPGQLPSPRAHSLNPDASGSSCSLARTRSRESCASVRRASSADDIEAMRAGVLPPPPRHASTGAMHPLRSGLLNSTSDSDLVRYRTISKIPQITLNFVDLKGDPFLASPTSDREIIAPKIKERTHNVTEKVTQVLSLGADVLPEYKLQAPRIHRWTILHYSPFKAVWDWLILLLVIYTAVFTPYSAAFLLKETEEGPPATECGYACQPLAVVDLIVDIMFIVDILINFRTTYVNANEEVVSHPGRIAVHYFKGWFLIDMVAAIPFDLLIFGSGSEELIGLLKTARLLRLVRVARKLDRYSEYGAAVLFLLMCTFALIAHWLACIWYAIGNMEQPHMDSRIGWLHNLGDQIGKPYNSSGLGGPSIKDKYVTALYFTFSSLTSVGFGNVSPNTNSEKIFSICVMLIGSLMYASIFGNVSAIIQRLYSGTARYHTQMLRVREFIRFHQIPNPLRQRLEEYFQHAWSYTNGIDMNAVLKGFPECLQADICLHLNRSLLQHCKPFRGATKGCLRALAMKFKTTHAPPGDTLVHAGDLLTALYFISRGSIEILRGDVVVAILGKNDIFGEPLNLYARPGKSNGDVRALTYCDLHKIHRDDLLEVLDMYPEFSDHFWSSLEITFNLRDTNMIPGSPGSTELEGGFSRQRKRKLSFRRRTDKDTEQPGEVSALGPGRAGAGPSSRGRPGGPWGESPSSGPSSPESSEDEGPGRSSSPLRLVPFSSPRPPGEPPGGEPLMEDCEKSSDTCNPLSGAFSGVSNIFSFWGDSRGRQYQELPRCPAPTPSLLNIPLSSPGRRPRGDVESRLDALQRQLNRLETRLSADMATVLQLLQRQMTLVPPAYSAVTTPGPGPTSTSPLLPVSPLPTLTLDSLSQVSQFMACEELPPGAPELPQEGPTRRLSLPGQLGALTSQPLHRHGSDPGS
row,Structure (SMILES),"hERG current change (%, negative = inhibition) at 10uM"
1,O=c1[nH]n(Cc2ccccc2)c2ccccc12,6.97%
2,O=C(CSc1nnc(-c2ccncc2)o1)NC1C2CC3CC(C2)CC1C3 (stereo not shown),-20.7%
3,COc1ccccc1C(CNc1nc(C(F)(F)F)nc2ccccc12)N(C)C (stereo not shown),-29%
4,O=C(CN1CCN(c2ccccc2F)CC1)NC(=O)NCc1ccco1,12.1%
5,COC(=O)c1nnn(CC(=O)NC(=O)Nc2ccc(F)cc2)c1C(=O)OC,1.97%
6,O=C(Nc1ccc(Cl)cc1)C(c1ccccc1)N1CCOCC1 (stereo not shown),-27.6%
7,C=CCc1cc(OC)c2c(c1)OCO2,8.39%
8,O=C(NCCS(=O)(=O)c1ccc(Br)cc1)c1c(F)cccc1F,22.1%
9,COc1cc(CCCN2C(=S)NC[C@@H]2Cc2ccccc2)cc(OC)c1OC,-8.91%
10,COc1ccc(NC(=S)NC2CC3CCC2C3)c(OC)c1 (stereo not shown),17.3%
11,CC(OC(=O)C1COc2ccccc2O1)C(=O)N(C)c1ccccc1 (stereo not shown),1.71%
12,Cc1cccc(NC(=S)N2CCCCCC2)c1,-3.94%
13,COc1ccc(CCNC(=O)c2ccc(N3CCCC3=O)cc2)cc1,-7.01%
14,COc1cc(NC(=O)CNC(c2ccccc2)c2ccccc2)cc(OC)c1OC,2.15%
15,CC(=O)CCS(=O)(=O)c1ccc(Oc2ccc(S(=O)(=O)CCC(C)=O)cc2)cc1,-2.04%
16,COc1ccc(N2CCN(C(=O)CSc3ncccc3-c3nc4ccccc4[nH]3)CC2)cc1,-53.4%
17,O=P(Oc1ccccc1)(Oc1ccccc1)c1ccccc1,-21.8%
18,COC(=O)c1ccc2nc(NC(=O)CSCC(=O)OCC(=O)c3ccccc3)sc2c1,-4.95%
19,CC1=C(C#N)C(Nc2cccc(C)n2)(C(F)(F)F)C(=O)N1 (stereo not shown),12.2%
20,COc1ccc(-c2cc(C(=O)Nc3ccccc3N3CCOCC3)c3ccccc3n2)cc1OC,7.48%
21,CCn1c(SCC(=O)Nc2ccc(Br)cn2)nnc1C1CC1,-4.12%
22,CCc1cc(C(c2ccc(OC)c(OC)c2)N2CCOCC2)c(NC(=O)c2ccccc2)s1 (stereo not shown),-15.7%

row,Structure (SMILES),"hERG current change (%, negative = inhibition) at 10uM"
1,COc1ccc(C(=S)N2CCN(c3ccccc3Cl)CC2)cc1OC,-17.4%
2,CCOc1ccccc1NC(=O)CN1CCCCCC1.Cl,14.7%
3,COc1ccc(N(C(=O)c2ccccc2C)S(=O)(=O)c2cccs2)cc1,-3.67%
4,O=C(CSc1nc(O)cc(=O)[nH]1)Nc1ccc2c(c1)CCC2,21.4%
5,C=CCN=C1N[C@@H](c2ccccc2)C(C(=O)OC)=C(C)N1CCOC,-13%
6,CCOc1cc(C(=O)N2CCCC2)cc(OCC)c1OCC,21.8%
7,O=C(O)c1ccc2cccnc2c1O,16.8%
8,CCCn1c(C)nc2c(c1=O)c1nc3ccccc3nc1n2CCC1=CCCCC1,-4.27%
9,COc1ccc(Cl)cc1-n1c(C)cc(C(=O)OCC(=O)N2CC(=O)Nc3ccccc32)c1C,3.8%
10,COC(=O)c1cc2ccccc2c(-c2c(O)ccc3ccccc23)c1O,-3.85%
11,CC(=O)NC(Cc1c[nH]c2ccccc12)C(=O)NCCc1ccccn1 (stereo not shown),22%
12,O=C(NN1CCOCC1)c1ccc(Cl)c(Cl)c1,-47.3%
13,CC(C(=O)OCC(=O)c1cccc([N+](=O)[O-])c1)N1C(=O)C2C3C=CC(C3)C2C1=O (stereo not shown),-7.18%
14,CCOc1ccc(-c2nn(-c3ccccc3)cc2/C=C2\SC(=S)N(Cc3ccco3)C2=O)cc1,5.21%
15,Cn1c(OCc2ccc3c(c2)OCO3)nc2c1c(=O)n(Cc1cccc(Cl)c1)c(=O)n2C,-0.643%
16,CC(=O)c1ccc(OCC(=O)N2CCCC(N3CCN(c4ccccc4C)CC3)C2)cc1 (stereo not shown),-75.2%
17,Cn1c(C(=O)NC2CC2)cc(=O)n(C)c1=O,-8%
18,COC(=O)c1ccccc1S(=O)(=O)N1CCC(C(=O)OC(C)C(=O)NC(N)=O)CC1 (stereo not shown),29.7%
19,CCOC(=O)c1c(C)[nH]c(C)c1S(=O)(=O)NCCN1CCN(c2cc(Cl)ccc2C)CC1,15.5%
20,Cc1ccc(CONC(=O)c2cccc(C)c2)cc1,-23.3%
21,O=C1CC(N2CCN(S(=O)(=O)c3ccc(Cl)cc3)CC2)C(=O)N1CCc1ccccc1 (stereo not shown),-48.2%
22,COc1cc(OC)cc(-c2nnc(SCC(=O)N3CCCC3)o2)c1,-14.7%

row,Structure (SMILES),"hERG current change (%, negative = inhibition) at 10uM"
1,CN(C)CCCNC(=O)c1cc(C(=O)c2ccccc2)c[nH]1,10.5%
2,Cc1ccc(S(=O)(=O)N/N=C/c2ccc(OC3CSC3)cc2)cc1,-5.47%
3,CCC(=O)N1CCN(c2ccc(NC(=S)NC(=O)c3cc4ccccc4o3)cc2)CC1,6.52%
4,CC1(C)CC(NS(=O)(=O)c2cccc3ccccc23)CC(C)(C)N1,2.15%
5,O=C(Nc1ccccc1)NC1(C(=O)N2CCN(C(=O)c3ccco3)CC2)CCCCC1,0.526%
6,Cc1cc(SCC(=O)OC(C)C(=O)N(C)c2ccccc2)nc2ccccc12 (stereo not shown),4.79%
7,CCN=C1S/C(=C\c2ccc(OC)c(OCC)c2)C(=O)N1CC,7.54%
8,Cc1c2n(c3ccccc13)CCC2=O,12.8%
9,OCCC1CN(Cc2cc3c(cc2Cl)OCO3)CCN1C1CCCC1 (stereo not shown),-50.8%
10,O=C(c1ccco1)N1CCCC(c2ccccc2)C1 (stereo not shown),0.966%
11,CCc1cccc(C)c1NC(=O)CCCN1C(=O)NC(C)(C)C1=O,-0.441%
12,Cc1ccc(-c2cn3nc(C)c(C)nc3n2)cc1,-6.47%
13,Cc1cc(-c2cc(C(=O)NCc3ccccc3)on2)nc(NC2CCCC2)n1,13%
14,COc1ccc(CCNS(=O)(=O)c2cccc([N+](=O)[O-])c2)cc1OC,4%
15,CC(/C=N/NC(=O)CSc1nc(C)cc(C)n1)=C\c1ccccc1,-1.5%
16,Cc1ccccc1NC(=O)CCNS(=O)(=O)c1ccc2[nH]c(=O)oc2c1,4.53%
17,Nc1nonc1-c1nc2ccccc2n1CC(=O)Nc1ccccc1,5.65%
18,COc1ccc(OC)c(C(C)NC(=S)NC2CCCCC2)c1 (stereo not shown),-6.58%
19,COc1cc(C(=S)N2CCOCC2)ccc1OC(=O)c1ccc([N+](=O)[O-])cc1[N+](=O)[O-],17.1%
20,CCOc1ccc(NC(=O)/C=C/c2ccc(OC)cc2)c([N+](=O)[O-])c1,12.2%
21,COc1ccc(CCNS(=O)(=O)c2ccc3c(c2)NC(=O)CS3)cc1OC,5.81%
22,Cc1ccc2c(c1)N(C(C)C(=O)NCc1ccccn1)C(=O)CO2 (stereo not shown),5.06%

row,Structure (SMILES),"hERG current change (%, negative = inhibition) at 10uM"
1,NC(=O)CN1CCOCCOCCN(CC(N)=O)CCOCC1,-3.16%
2,Cc1nc2ccc(NC(=O)c3ccccc3)cc2s1,2.56%
3,COC(=O)c1ccc(C2Nc3ccccc3NC3=C2C(=O)CC(C)(C)C3)cc1 (stereo not shown),8.58%
4,CCOc1cc(/C=N/n2cnnc2)cc(Br)c1O,-2.33%
5,O=C(CSc1ccc(F)cc1)Nc1ccc2c(c1)C(=O)NC2=O,-22.1%
6,COc1ccc(CNC(=O)c2cncc(Br)c2)cc1,11.5%
7,CCOc1ccc(C(=O)Nc2c3c(nn2-c2cccc(C)c2C)CS(=O)C3)cc1 (stereo not shown),-11%
8,O=C(NN1C(=O)C2CC=C(Cl)CC2C1=O)c1ccncc1 (stereo not shown),21.1%
9,O=C(CNC(=O)c1cccc(F)c1)OCC(=O)N1CCCc2ccccc21,-0.321%
10,O=C(NN1C(=O)c2ccccc2NC1c1ccco1)c1ccc(Br)cc1 (stereo not shown),-76.6%
11,COc1cc(/C=N/NS(=O)(=O)c2ccc3ccccc3c2)ccc1OCc1ccc(C(=O)O)cc1,24.8%
12,CCOC(=O)C(C)/C(C)=N/NC(=O)c1cc2ccccc2cc1O (stereo not shown),8.33%
13,CC(C)(C)S(=O)(=O)c1cnc2c(-c3ccc(F)cc3)cnn2c1N,-2.82%
14,COc1ccc(CCNC(=O)c2sc3ccccc3c2Cl)cc1OC,-5.82%
15,Cc1ccc(N(C(=O)c2snc(C(N)=O)c2N)C(C(=O)NCC2CCCO2)c2c[nH]c3ccccc23)cc1 (stereo not shown),-6.36%
16,Cc1ccc([C@@H]2[C@@H]3C(=O)N(C)C(=O)[C@@H]3[C@]3(Cc4ccccc4)C(=O)N(CCO)CC(=O)N23)o1,0.221%
17,CN(CCOc1ccccc1)C(=O)C1CCC(=O)N(CCc2ccc(Cl)cc2)C1 (stereo not shown),-84.9%
18,CC(C)OP(=O)(c1ccc(N(C)C)cc1)C(O)c1cccnc1 (stereo not shown),13.1%
19,CCOC(=O)Cc1c(C)[nH]n(-c2ccccc2)c1=O,11.6%
20,COc1ccc(CNC(=O)CN2C(=O)C3CCCN3c3ncc(Cl)cc32)cc1 (stereo not shown),-29%
21,COc1ccc(C=O)cc1COc1ccc(Cl)cc1[N+](=O)[O-],-0.414%
22,COc1ccc(/C(=N/OC(C)=O)c2nccc3cc(OC)c(OC)cc23)cc1OC,18.6%
